Results reported in publication PMC12136788.
The list shows a part of the results.

B1: ENSG00000104047:stop:overlap|stop_codon|ENSG00000104047|stop_codon|NA|stop_codon (ssRNA)
RNA: GGGAGUUCUACAGUCCGACGAUCACCAGUUGAUAAAGAAUGCCAAAUGCUCUGGAGAUAAGGAAACAGGAAAACUUACACAUUAGUUUUUAACAAGCCACUUAUGUCUUUUUAUUUUGCUAACAUUAAUAAACUUAUAUUUGUCAACAGAGGAUUGAGCAUCA
B2: ENSG00000070961:be:win_1701|CDS|ENSG00000070961|bound_else_gene|NA|bound_elsewhere_windowed (ssRNA)
RNA: GGGAGUUCUACAGUCCGACGAUCACCAGAAGAAGCACUGUACAAAGUCUACACCUUCAAUUCUGUUAGGAAGUCCAUGAGUACUGUCCUGAAAAAUUCAGAUGGAAGUUAUCGAAUAUUCAGCAAGGGUGCAUCUGAGAUAAUCAACAGAGGAUUGAGCAUCA
B3: chr2:165880514:165880799:-|CDS|ENSG00000123607|control|control|control (ssRNA)
RNA: GGGAGUUCUACAGUCCGACGAUCGAUGGCAUGGAAAUAUAGCAAUCGGACAAAUCCGGCAGUAGGUGAGUUUGGCAAUCACCUAGAUUUUUCACAGAAAAAUUAUGUUGUAUUUAUUAAUUUUCAUUUAAAUGCAUUUGAUUUCAACAGAGGAUUGAGCAUCA
B4: chr4:155836688:155836857:-|CDS|ENSG00000256394|control|control|control (ssRNA)
RNA: GGGAGUUCUACAGUCCGACGAUCUAAGGAUUUAUGUACAGUAGGAACACAUAACUCUAGCUGCCCCGUUUCUUGUGAAGAAAUAGAAUACCCGGCCACUAUUUCUUAUUCCUCUUUUCCAAGUCAAAAAGCUUUGAAAUAUCUCAACAGAGGAUUGAGCAUCA
B5: chr5:147393259:147393361:-|3pUTR|ENSG00000113657|msi1_unk|total|mutant (ssRNA)
RNA: GGGAGUUCUACAGUCCGACGAUCAGACCCAACCAUUUCUUCCACCUGCUUGAUUGUGCCAGUGUUUGCUCAGGCCUCUUUCUCCGUGUUGCUUUCAAAUCCUUCUCUUUCCUGGGUUGGGAAGGCCAGGCAGGGACAGAGCAACAACAGAGGAUUGAGCAUCA
B6: chr2:53865134:53865235:-|3pUTR|ENSG00000068878|unk|FALSE|unique (ssRNA)
RNA: GGGAGUUCUACAGUCCGACGAUCGUCCUGUCAUUUCAUUCAUCUCAAAUUAUUUUGAAUUCUUCCCAAAUGGCUGCUGGAUUUAGGUGGUAAUAGGGGCUGUGGGCCAUAAAUCUGAAGCCUUGAGAACCUUGGGUCUGGAGACAACAGAGGAUUGAGCAUCA
B7: chr1:46316673:46316776:+|3pUTR|ENSG00000173660|unk|FALSE|unique (ssRNA)
RNA: GGGAGUUCUACAGUCCGACGAUCUGUUUCUUAUUUGUGUAACUGUAAGUUCACAUGAACCUCAUGGGUUUGGCUUAGGCUGGUAGCUUCUAUGUAAUUCGCAAUGAUUCCAUCUAAAUAAAAGUUCUAUGAUCUGCAAACCUGCAACAGAGGAUUGAGCAUCA
B8: chr10:78022286:78022401:-|CDS|ENSG00000148606|unk|FALSE|unique (ssRNA)
RNA: GGGAGUUCUACAGUCCGACGAUCAACAUAGUAUCUCCAUUUCUGCCUUUCUUCGUUUCCAUAGGAAAACUUGAAUCCCUUAGUAGUUCUGAAUUUAUUUAAACGAAUCCCAGCUGAAGAUGUUCCUCUACUUCUGAUGAACCCCAACAGAGGAUUGAGCAUCA
B9: chr17:81509976:81510077:-|3pUTR|ENSG00000184009|msi1|FALSE|unique (ssRNA)
RNA: GGGAGUUCUACAGUCCGACGAUCUCUCGAUUCUUUGAAGAGAUGACAACAAAUUUUGGUUUUCUACUGUUAUGUGAGAACAUUAGGCCCCAGCAACACGUCAUUGUGUAAGGAAAAAUAAAAGUGCUGCCGUAACCAAUGAAUCAACAGAGGAUUGAGCAUCA
B10: chr7:20412513:20412614:+|3pUTR|ENSG00000105855|msi1|total|mutant (ssRNA)
RNA: GGGAGUUCUACAGUCCGACGAUCUCCUUAAAAAUCCAGAGUUUAUAUUUUUUUUAUACCCUCACUUGUUUGCACUAACUUUACCGUGGACCAAGGCUGUUACCACCGGAAGGGACAAACUUCCUUGCCGGCAACUCAGUGUUACAACAGAGGAUUGAGCAUCA
B11: chr7:108502517:108502634:-|CDS|ENSG00000135241|unk|FALSE|unique (ssRNA)
RNA: GGGAGUUCUACAGUCCGACGAUCAUUAUUCCAUAUUUAUUACGACUGAGACAAAUUAAGGAUGAAACUCUUCAGGCUGCAGUUAGAGAAAUUUUGGCCCUAAUUGGCUAUGUGGAUCCAGUGAAAGGGAGAGGAAUCCGAAUUCAACAGAGGAUUGAGCAUCA
B12: chr11:111726697:111726798:+|3pUTR|ENSG00000170145|unk|total|mutant (ssRNA)
RNA: GGGAGUUCUACAGUCCGACGAUCGGAAGCUUCCAAGCAGUUUUCUCUUCAUCACUACUAACAAACAAAACACUAAGAAGGCUCCGUAUCGCUCUUUUUCUGCGGGGCUACUCUGAAGUACUGACUUGCUUUCCAGUCUGAUUCCAACAGAGGAUUGAGCAUCA
B13: chr8:93925380:93925481:+|3pUTR|ENSG00000164951|msi1|FALSE|unique (ssRNA)
RNA: GGGAGUUCUACAGUCCGACGAUCAUUUAUUUCUAAAUGUUUUGACUGGGCAUUUUUCUUUUAAUGAAAUAUGUGGACUGCUCUAGCAAACCCUAUUUUCAGCUACUAUUUGAAUAUUCUUGAACACCACCACUGAAGAGUUUCCAACAGAGGAUUGAGCAUCA
B14: chr2:88557131:88557241:-|3pUTR|ENSG00000172071|msi1|total|mutant (ssRNA)
RNA: GGGAGUUCUACAGUCCGACGAUCGAGGACAAGCCGCACAAACUGUAUAACGGUUUAUGUCCGCCGUUUUACCGUCCUAUUUGCCGCAUUCAACCGCUUUAUUCCUCCGAUGGUUCCCGGGUGGGUUUACAGCUUUUUGUACUUCAACAGAGGAUUGAGCAUCA
B15: chr2:10440579:10440691:-|3pUTR|ENSG00000115758|unk|FALSE|unique (ssRNA)
RNA: GGGAGUUCUACAGUCCGACGAUCUAACUGCAAGUUUAGCUUGAAUUAAGGGAUUUGGGGGGACCAUGUAACUUAAUUACUGCUAGUUUUGAAAUGUCUUUGUAAGAGUAGGGUCGCCAUGAUGCAGCCAUAUGGAAGACUAGGCAACAGAGGAUUGAGCAUCA
B16: chr10:99879964:99880065:-|CDS|ENSG00000107554|unk|total|mutant (ssRNA)
RNA: GGGAGUUCUACAGUCCGACGAUCCAGAUGCCCUUCAGACCCAGACUCCACCUCCCAGCCAAGGUCAGGGGACUCUGCAGAUGCCGCCCGAGAUGUAAAGCAACCCACUGCCACGCCGAGGAGCUACCGGAACUUCAGGCAUCCCAACAGAGGAUUGAGCAUCA
B17: chr2:89040223:89040519:-|CDS|ENSG00000243290|control|control|control (ssRNA)
RNA: GGGAGUUCUACAGUCCGACGAUCAUCUGUAGGAGACAGAGUCACCAUCACUUGUCGGGCGAGUCAGGGUAUUAGCAGCUGGUUAGCCUGGUAUCAGCAGAAACCAGGGAAAGCCCCUAAGCUCCUGAUCUAUGCUGCAUCCAGCAACAGAGGAUUGAGCAUCA
B18: ENSG00000198589:be:win_3201|CDS|ENSG00000198589|bound_else_gene|NA|bound_elsewhere_windowed (ssRNA)
RNA: GGGAGUUCUACAGUCCGACGAUCAACUGGCAAAGAUUCAAUGACUGUCAGUGAAGUAACUGCUUCUAUAAGUUCUCCUUCAGAAGAGGAUGCCUCAGAGAUGCCAGAAUUCUUGGAUAAAUCUAUAGUAGAGGAAGAGGAAGACAACAGAGGAUUGAGCAUCA
B19: chr8:41262032:41262394:-|3pUTR|ENSG00000104332|msi1|total|mutant (ssRNA)
RNA: GGGAGUUCUACAGUCCGACGAUCGGCCGUUCUGACCUGUUGCCAGCAGAUACACAGGACAUGGAUGAAAUUCCCGUUUCCUCCCGUUUCUUCCUGCCGUACUCCUCUUUCCGAUCCUAAGUCUCUUACAAAAGCUUUGAAUACCAACAGAGGAUUGAGCAUCA
B20: chr15:59081107:59081211:+|CDS|ENSG00000157450|unk|total|mutant (ssRNA)
RNA: GGGAGUUCUACAGUCCGACGAUCUUCUCAAAUAUCUUCUCAUGCAACAUCUCAUCCUGUGGCACCCCCACCACCAACUCACUCCGCCAGUACAGCUGCACCAAUCCCUCAGCAUCUUCCUCCUACACACCAGCCAAUUUCGCACAACAGAGGAUUGAGCAUCA
B21: chr12:18688087:18688218:-|CDS|ENSG00000139151|control|control|control (ssRNA)
RNA: GGGAGUUCUACAGUCCGACGAUCUGGUAUCCAGUUGCCUCUUACUCAUUCAUCAUCUAACAAAGGUGAUUCAUUAGUAAUUAUAGAAGUUUUUGGUGUUCCAAAUGAUCAAAUGAAGCAGCAGACUCGUGUAAUUAAAAAAAACAACAGAGGAUUGAGCAUCA
B22: chr16:3022182:3022332:+|3pUTR|ENSG00000006327|msi1|total|mutant (ssRNA)
RNA: GGGAGUUCUACAGUCCGACGAUCCCACGGGGGUCACCCUGGGGGGUCCGGGACCUAUUUUUAACACCCGGGGGCUGGCCCACCCGGAGGGCUGGCCCUAAGAUACAGACCCCCCCAACUCCCCAAAGCGGGGAGGAGAUAUUUCAACAGAGGAUUGAGCAUCA

These binders were tested against MSI1 full-length (mouse, UniProt Q61474 1-362) (assay: nsRBNS (natural sequence RNA bind-n-seq); RBNS binding buffer (assumed for nsRBNS): 25 mM Tris pH 7.5, 150 mM KCl, 3 mM MgCl2, 0.01% Triton X-100, 500 ug/ml BSA, 20 U/ml SUPERase-In, 4 C; UNK is unkempt and MSI1 is Musashi-1; names of the RNAs are library labels; protein concentration not given here; high values mean tight binding).
Sequence of UniProt Q61474 (Q61474 whole entry): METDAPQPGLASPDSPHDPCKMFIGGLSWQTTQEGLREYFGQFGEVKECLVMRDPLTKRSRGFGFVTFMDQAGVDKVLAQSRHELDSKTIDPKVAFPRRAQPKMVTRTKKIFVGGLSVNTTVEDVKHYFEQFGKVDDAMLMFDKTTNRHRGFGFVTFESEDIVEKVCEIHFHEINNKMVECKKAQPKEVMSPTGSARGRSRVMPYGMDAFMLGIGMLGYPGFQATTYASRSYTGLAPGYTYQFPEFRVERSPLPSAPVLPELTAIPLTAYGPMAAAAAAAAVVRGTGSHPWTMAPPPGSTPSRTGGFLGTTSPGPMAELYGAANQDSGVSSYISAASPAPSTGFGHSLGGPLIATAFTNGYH

Binder	binding signal
B1	0.583 enrichment R
B2	0.208 enrichment R
B3	0.379 enrichment R
B4	0.632 enrichment R
B5	0.43 enrichment R
B6	0.431 enrichment R
B7	0.559 enrichment R
B8	6.67 enrichment R
B9	0.24 enrichment R
B10	0.476 enrichment R
B11	0.803 enrichment R
B12	0.495 enrichment R
B13	0.364 enrichment R
B14	0.347 enrichment R
B15	1.79 enrichment R
B16	0.65 enrichment R
B17	0.359 enrichment R
B18	0.774 enrichment R
B19	0.417 enrichment R
B20	0.776 enrichment R
B21	0.585 enrichment R
B22	0.277 enrichment R
